Drawing on PubChem BioAssay AID488969 (Vanderbilt High Throughput Screening Facility, 2010), this text covers z-score for 30 molecules.

In all, about 110,000 compounds were measured (“z-score”: median about -0.1, highest 2% from about 2 on). The list shows a part of the results. Active and inactive are the calls of the source.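 Rule for the calls: active = z-score in the third read window above 3 or below -3; inactive = the rest.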

This experiment has as its target Metabotropic glutamate receptor 8 (Rattus norvegicus) (UniProt P70579). Briefly: mGluR8 Gi/Go-coupled signaling modulation – cell-based, rat, thallium flux, HTS, primary screen (AID 488969). The following applies: HEK293 rat mGluR8, GIRK (G protein-gated inwardly rectifying potassium channel) thallium flux, FluoZin2; at 10 µM; stronger effect = higher value; submaximal glutamate (EC20) added with thallium.
UniProt P70579, sequence (P70579 whole entry, looked up): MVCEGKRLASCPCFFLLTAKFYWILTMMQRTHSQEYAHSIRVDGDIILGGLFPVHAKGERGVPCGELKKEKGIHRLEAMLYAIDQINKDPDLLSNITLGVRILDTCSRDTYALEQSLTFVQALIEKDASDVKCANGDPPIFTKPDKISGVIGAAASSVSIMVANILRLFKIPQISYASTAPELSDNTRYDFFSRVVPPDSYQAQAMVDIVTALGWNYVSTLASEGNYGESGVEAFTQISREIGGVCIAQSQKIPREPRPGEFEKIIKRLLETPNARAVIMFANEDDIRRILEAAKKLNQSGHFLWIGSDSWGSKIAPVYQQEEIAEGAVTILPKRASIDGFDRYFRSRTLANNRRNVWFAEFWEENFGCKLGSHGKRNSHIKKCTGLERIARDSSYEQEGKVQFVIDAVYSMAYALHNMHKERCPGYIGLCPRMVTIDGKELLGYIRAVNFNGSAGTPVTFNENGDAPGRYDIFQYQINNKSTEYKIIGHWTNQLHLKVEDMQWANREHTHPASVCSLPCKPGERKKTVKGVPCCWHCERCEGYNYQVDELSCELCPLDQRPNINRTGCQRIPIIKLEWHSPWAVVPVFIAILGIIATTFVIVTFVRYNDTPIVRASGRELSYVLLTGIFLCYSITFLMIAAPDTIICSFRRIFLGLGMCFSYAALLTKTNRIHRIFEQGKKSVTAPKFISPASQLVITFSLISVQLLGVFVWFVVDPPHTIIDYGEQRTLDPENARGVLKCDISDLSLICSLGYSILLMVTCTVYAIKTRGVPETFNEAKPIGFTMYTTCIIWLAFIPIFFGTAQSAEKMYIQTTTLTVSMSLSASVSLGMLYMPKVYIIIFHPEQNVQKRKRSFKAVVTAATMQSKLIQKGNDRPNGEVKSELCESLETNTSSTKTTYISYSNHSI
`Cc1ccnc(N2C(=O)c3ccccc3C2Nc2ccc3c(c2)OCCO3)c1` (stereo not given) came in with a z-score of -0.506.
The result for `O=[N+]([O-])c1cccc(/C=N/Nc2nc(N3CCOCC3)nc(N3CCOCC3)n2)c1` reads -0.0486; that for `CCN(CC)CCc1c(C)[nH]c(C(=O)OCc2ccccc2)c1C`, 1.8; that for `COc1ccc(S(=O)(=O)c2ccc(OC)cc2)cc1`, -0.45.
Next, `O=C(O)c1cnn2cc(-c3[nH]ncc3[N+](=O)[O-])cnc12`: -0.286; `Cc1cc(=O)c2ccccc2[nH]1`: 0.0595.
For `COCCn1nnnc1C(c1ccccc1)N1CCN(c2ccccc2)CC1` (stereo not given), the z-score was active: -3.28.
The result for `N#CCOc1nc(N2CCCC2)nc(N2CCCC2)n1` reads -1.89; that for `CC(=O)Nc1ccc(Oc2cc(C#N)c(C#N)cc2N2CCCCCC2)cc1`, 1.3.
The result for `CCN1CCN(C(c2cc(OC)ccc2OC)c2nnnn2Cc2ccccc2)CC1` (stereo not given) reads -0.0909; that for `CCc1nnc(NC(=O)c2cccnc2)s1`, 0.374; that for `CC1CCN(C(=O)CSc2nc3cccnc3n2C)CC1`, 0.236.
Next, `COc1ccc(S(=O)(=O)N2CCOCC2)cc1NC(=O)c1cccc2c(=O)c(C)c(-c3ccccc3)oc12`: -0.842; `O=c1[nH]c2cc3c(cc2cc1CN(CC1CCCO1)S(=O)(=O)c1ccc(Cl)cc1)OCCO3` (stereo not given): 0.143; `O=C(O)c1c[nH]c(=S)n1-c1ccc(F)cc1`: 0.204.
For the molecule `CCCCC1(C)Cc2ccccc2C(=S)N1` (stereo not given), the z-score was -0.236.
The result for `CC1CCN(C(=S)c2cn(Cc3ccc(F)cc3)c3ccccc23)CC1` reads 0.0562; that for `NS(=O)(=O)c1ccc(CCNC(=O)CN2CCN(c3cccc(Cl)c3)CC2)cc1`, 0.138.
Next, `CC(=O)Nc1ccc(S(=O)(=O)N2CCN(c3cc4c(cc3[N+](=O)[O-])n(C)c(=O)n4C)CC2)cc1`: -0.0655; `COC(=O)C1CCN(C(=O)Nc2ccc(OC)cc2)CC1`: -0.116; `COc1cc(S(=O)(=O)N2CCN(C(=O)c3ccccc3F)CC2)c(OC)cc1NC(C)=O`: 0.0904.
The result for `COc1cc(CNC2CCCC2)cc(Cl)c1OCc1ccc(F)cc1` reads -0.271.
`CCn1c(/C=C/c2ccc([N+](=O)[O-])o2)nc2ccccc2c1=O`: the z-score was -0.689.
The result for `Cc1c(NC(=S)NC(NC(=O)C(C)C)C(Cl)(Cl)Cl)c(=O)n(-c2ccccc2)n1C` (stereo not given) reads -0.0993; that for `CN(CCO)c1cc(N2CCC3(CC2)OCCO3)c2nonc2c1[N+](=O)[O-]`, 0.787; that for `O=C(COC(=O)CNC(=O)c1ccccc1)Nc1cccc(Br)c1`, -0.0953.
The result for `COc1ccccc1S(=O)(=O)n1cc(Cc2ccccc2)c(N)n1` reads -0.756; that for `CC(C)NC(=S)N/N=C/C1=CCC2CC1C2(C)C` (stereo not given), -0.69.
The result for `O=[n+]1c2c(n([O-])c3cc(F)c(N4CCCC4)cc31)CCC2` reads active: -3.94; that for `O=C(CSc1oc(-c2ccco2)nc1S(=O)(=O)c1ccc(Cl)cc1)NCC1CCCO1` (stereo not given), -0.482.
